The labels stand for the following.
B1: LINE1-mini (parent)
chain: GGCAGAGCUCAACACAGCGUGGCAAAGUGGCUGUGGCUAGACUGCC

Read counts are not given, so values of variants with three or more changes are uncertain.

Variants of B1 are the subject of this data set. In words: self-cleavage, relative activity (ratio to wild type); higher = more cleavage; in vitro, sequencing; the parent is a self-cleaving ribozyme.
As to GGCAGAGCUCAACACAGCGUGGCAAAGACGCUGUGGCUAGAUUGCC, the self-cleavage amounted to 0.11. To GGCAGAGCUCAACACAGCGUGGCAAACUGGCUGUGGCUAGACAACC belongs 0.06; to GGCAGAGCUCAACACAGCGUGGCAAAGACGCUGUGUCUAGACUGCC, 0.01. In the case of GGCAGAGCUCAACACAGCGUGGCAAAGAGGCAGCGGUUAGACUGCC, the self-cleavage came out at 0.02. With GGCAGAGCUCAACACAGCGUGGCAAAUUCGCGGUGGUUAGACUGCC, the self-cleavage came out at 0.02. Turning to GGCAGAGCUCAACACAGCGUGGCAAAGAGGCUGCGGCUAGACUGCA, the self-cleavage was found to be 0.06. Regarding GGCAGAGCUCAACACAGCGUGGCAAAUUGGCUGUGGUUAUACUGCC, the self-cleavage is 0.28.

Consider GGCAGAGCUCAACACAGCGUGGCAAAGCGCCUGUGGCUGGACUGCC, for which the self-cleavage amounted to 0.09. For the variant GGCAGAGCUCAACACAGCGUGGCAAAGAGGCUGUGGGUAGACCGCC, the self-cleavage worked out at 0.03. With GGCAGAGCUCAACACAGCGUGGCAAACCGGCUGUUGCUAGCCAGCC, the self-cleavage came to 0.02.

For the variant GGCAGAGCUCAACACAGCGUGGCAAAUUGGCUGUUGCAAGACUGCC, the self-cleavage turned out to be 0.48. For the variant GGCAGAGCUCAACACAGCGUGGCAAAUUCGCUGUGGCUAGACGGCC, the self-cleavage was found to be 0. For GGCAGAGCUCAACACAGCGUGGCAAAGAGGCUGCGGCUAGACAGCC, the self-cleavage stood at 0.01. On to GGCAGAGCUCAACACAGCGUGGCAAAGAGGCUAUGGCAAGACUGCC, for which the self-cleavage was 0.14. On to GGCAGAGCUCAACACAGCGUGGCAAAUCGGCUGUGACUAGACUGUC, for which the self-cleavage came out at 0.11. On to GGCAGAGCUCAACACAGCGUGGCAAAGAGGCUGUGCCUAAAGUGCC, for which the self-cleavage worked out at 0.02.

Consider GGCAGAGCUCAACACAGCGUGGCAAAGAGUCUGUGGCUAGACUGCU, for which the self-cleavage turned out to be 0.77. Turning to GGCAGAGCUCAACACAGCGUGGCAAAUGGGCUGUGGCUAGGCUGCC, the self-cleavage was 0.11. For the variant GGCAGAGCUCAACACAGCGUGGCAAAGAGGCUGUGGCUACACUAUC, the self-cleavage worked out at 0.06. As to GGCAGAGCUCAACACAGCGUGGCAAAUUGGCUGUGGCUACACUGAC, the self-cleavage turned out to be 0.07. Turning to GGCAGAGCUCAACACAGCGUGGCAAAUUGGCUGUAGCUAGACUGAC, the self-cleavage was determined as 0.33. With GGCAGAGCUCAACACAGCGUGGCAAAUUGGCUCUGGCUAGAAUUCC, the self-cleavage was 0.01. With GGCAGAGCUCAACACAGCGUGGCAAAUUGGCUGUGGCUCGACUGAC the figure was 0.06. In the case of GGCAGAGCUCAACACAGCGUGGCAAAGAGCCUUUCGCUAGACUUCC, the self-cleavage came to 0.26. Turning to GGCAGAGCUCAACACAGCGUGGCAAAGAGGUUGUGGCUAGACAGCC, the self-cleavage was found to be 0.03. On to GGCAGAGCUCAACACAGCGUGGCAAAGAGGCUGUGGCUAGACAACC, for which the self-cleavage turned out to be 0.08. Regarding GGCAGAGCUCAACACAGCGUGGCAAACCGGCUGUGGCUAGACUGCA, the self-cleavage is 0.51.

For GGCAGAGCUCAACACAGCGUGGCAAAUUGGCUGUGCGUAGACUCCC, the self-cleavage worked out at 0.01.

In the case of GGCAGAGCUCAACACAGCGUGGCAAAUUGGCUGUCGCUAGAAUGCC, the self-cleavage turned out to be 0.02. As to GGCAGAGCUCAACACAGCGUGGCAAAUUGGAGGUAGCUAUACUGCC, the self-cleavage is 0.01. With GGCAGAGCUCAACACAGCGUGGCAAAUUUGAUGUUGCUAGACUGCC the figure was 0.02. With GGCAGAGCUCAACACAGCGUGGCAAAUUGGCUGUCGCUAGACUGCG, the self-cleavage is 0.03. Turning to GGCAGAGCUCAACACAGCGUGGCAAAGCGGCUGUGGCUAGUUUGCC, the self-cleavage was 0.07. As to GGCAGAGCUCAACACAGCGUGGCAAAUUGGCUGUAGCUAAAGUGCC, the self-cleavage was 0.05. As for GGCAGAGCUCAACACAGCGUGGCAAAGAGUCUGACGCUAGACUGCC, the self-cleavage stood at 0.05. In the case of GGCAGAGCUCAACACAGCGUGGCAAAUUGGCUGGGGCUAGACUGCA, the self-cleavage worked out at 0.11.

GGCAGAGCUCAACACAGCGUGGCAAAUUGUCUGUGUCUAGACUGCC: the self-cleavage turned out to be 0.08. Take GGCAGAGCUCAACACAGCGUGGCAAAGAGGCGGUGGGGAGACCGCC: the self-cleavage amounted to 0.01. On to GGCAGAGCUCAACACAGCGUGGCAAACAGGCUGUGGCUAUACUGCC, for which the self-cleavage amounted to 0.07. Take GGCAGAGCUCAACACAGCGUGGCAAAUUGGAGGUGGCUAGACUGCC: the self-cleavage came out at 0.08. Regarding GGCAGAGCUCAACACAGCGUGGCAAAGCGGGUCUGGCUAGACUGCC, the self-cleavage worked out at 0.03. To GGCAGAGCUCAACACAGCGUGGCAAAUUGGCCCUGGCUAGACUGCC belongs 0.03.

For the variant GGCAGAGCUCAACACAGCGUGGCAAAGCGGCUGUGGCUUCACUGCA, the self-cleavage was 0.39.

Turning to GGCAGAGCUCAACACAGCGUGGCAAAUUAGCUAUGGCUAGACUGCC, the self-cleavage was found to be 0.06. As to GGCAGAGCUCAACACAGCGUGGCAAAGAGGCUGUGACUAGGCUGCC, the self-cleavage was found to be 0.19.

For GGCAGAGCUCAACACAGCGUGGCAAAGAGGUUGUGGCUAUACUCCC, the self-cleavage amounted to 0.05.

As to GGCAGAGCUCAACACAGCGUGGCAAAUUGGGUGUGGCAAGAAUGCC, the self-cleavage was 0.32.

GGCAGAGCUCAACACAGCGUGGCAAACUGGCUGUGGCCAGAUUGCC: the self-cleavage was found to be 0.03. Take GGCAGAGCUCAACACAGCGUGGCAAAUUGGCUGUGGUUUGGCUGCC: the self-cleavage is 0.01.

As to GGCAGAGCUCAACACAGCGUGGCAAAUGGGCUGUGGCUUGACUACC, the self-cleavage stood at 0.25. With GGCAGAGCUCAACACAGCGUGGCAAAGAGGGUGUGGCUAGACUGCG the figure was 0.17. For the variant GGCAGAGCUCAACACAGCGUGGCAAAGAGGCUGUGACUAUACUGCC, the self-cleavage was 0.18. GGCAGAGCUCAACACAGCGUGGCAAAUUUACUGGGGCUAGACUGCC: the self-cleavage came to 0.39.

Consider GGCAGAGCUCAACACAGCGUGGCAAAUUGGCUGUGGGUAGACAGCC, for which the self-cleavage amounted to 0.05. To GGCAGAGCUCAACACAGCGUGGCAAAGAGGCUGUGUCUAGACUGCU belongs 0.05; to GGCAGAGCUCAACACAGCGUGGCAAAUUGGCUGUGGCAAGACUGUC, 0.9.

These data come from the RNAGym collection of RNA variant scans (doi:10.7554/elife.90254).
